Out of some 45,000 compounds screened, about 65 (0.1%) were called active. The call rests on the fitted dose curve; in most records, active means well fitted activation curve with a large enough effect; inconclusive means small, poorly fitted or top-dose-only effect; inactive means no such curve, though single readings can be large or run the other way. This is one part of the list.

The assay has as its target Galactocerebrosidase (Homo sapiens) (UniProt P54803). In words: A Novel Cell-Based Assay to Identify Small Molecules for B -Galactocerebrosidase. Further: 0% is about no effect; nearly all actives have a fitted effect of over 65% in size. The conditions noted are these: 145M-Twi-hGALC-G270D cells (Twitcher mouse brain line with human GALC G270D), HMU-beta-Gal fluorescence, 48 h; series mostly up to 57.5 µM; activation: at the top concentration. In outline: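 Live 145M-Twi cells (Twitcher mouse brain-derived, GALC-null) stably expressing human GALC-G270D, with a wild-type GALC line, were compound-treated. Residual GALC activity was then read as fluorescence from 0.1 mM final HMU-β-gal at pH 5.2; higher signal means activation.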
Chain of UniProt P54803 (P54803 whole entry, looked up): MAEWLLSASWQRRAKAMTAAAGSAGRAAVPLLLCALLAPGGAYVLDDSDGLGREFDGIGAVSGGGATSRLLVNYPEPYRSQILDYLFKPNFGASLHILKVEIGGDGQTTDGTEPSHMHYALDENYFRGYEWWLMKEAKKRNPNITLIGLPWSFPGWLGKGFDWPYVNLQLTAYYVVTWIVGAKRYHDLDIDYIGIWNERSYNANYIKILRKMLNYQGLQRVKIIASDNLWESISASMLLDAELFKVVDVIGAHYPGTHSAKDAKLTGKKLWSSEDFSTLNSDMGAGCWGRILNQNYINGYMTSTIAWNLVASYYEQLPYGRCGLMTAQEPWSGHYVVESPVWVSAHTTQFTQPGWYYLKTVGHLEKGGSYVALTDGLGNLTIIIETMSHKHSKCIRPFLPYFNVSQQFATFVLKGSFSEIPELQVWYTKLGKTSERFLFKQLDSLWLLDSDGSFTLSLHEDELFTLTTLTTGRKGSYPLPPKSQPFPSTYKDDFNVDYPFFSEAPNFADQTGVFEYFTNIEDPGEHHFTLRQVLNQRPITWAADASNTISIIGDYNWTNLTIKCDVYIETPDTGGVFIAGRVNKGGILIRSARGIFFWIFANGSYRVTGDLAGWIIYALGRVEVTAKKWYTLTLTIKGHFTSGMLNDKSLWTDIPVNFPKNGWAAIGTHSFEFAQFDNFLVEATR
On to `COc1ccc(-c2nc(S(=O)(=O)c3ccccc3)c(N3CCCCC3)o2)cc1`, for which the “activation” value is inactive: -12.3%. Regarding `CCN(Cc1nc(-c2ccc(OC)cc2)oc1C)S(=O)(=O)c1ccc(Cl)cc1`, the “activation” value is inactive: -26%. For the compound `Cc1ccccc1CNCCCSc1nnnn1-c1ccccc1`, the “activation” value is inactive: -9.93%. In the case of `Cc1ccc2oc(=O)c3cnn(CC(=O)Nc4ccc(Br)cc4C)c3c2c1`, the “activation” value is inactive: -10.3%. As for `CCN1C(=O)c2ccccc2Sc2ccc(NC(=O)Nc3ccc(C(C)=O)cc3)cc21`, the “activation” value was inactive: -1.73%.

With `Cc1cc(C)c(Cn2c(C)c(CNCc3ccccc3C)c(C(=O)O)c2C)c(C)c1`, the “activation” value is inactive: -6.97%. On to `CCc1ccccc1NC(=O)C(=O)c1cc(C)n(-c2ccccc2F)c1C`, for which the “activation” value is inactive: -11.5%. Regarding `O=C(c1ccco1)N(Cc1cccnc1)c1nc2c(F)cccc2s1`, the “activation” value was inactive: -24.8%. In the case of `CC1CCCCN1C(=O)CSc1nc2ccccc2nc1Cc1ccc(Cl)cc1` (configuration not stated), the “activation” value was inactive: -4.38%.

In the case of `CCc1cccc(C)c1NC(=O)COCc1cc(-c2ccc3c(c2)OCO3)on1`, the “activation” value was inactive: -12.1%. For the compound `Cc1c(CCNS(=O)(=O)c2ccccc2)sc2nc(-c3ccc(Cl)cc3)nn12`, the “activation” value is inactive: -15.2%. For the compound `COC(=O)c1cc(NC(=O)c2cnc(SC)nc2-c2ccccc2)cc(C(=O)OC)c1`, the “activation” value was inactive: -5.01%. The same measure for `CCNc1nc2c(c(=O)n(C)c(=O)n2C)n1CC(O)COc1ccccc1` (configuration not stated): inactive: -39.8%; for `O=C(CC1N=C2c3ccccc3N=C(SCc3ccc(Cl)cc3)N2C1=O)NC1CCCCC1` (configuration not stated): inactive: -14.4%. Consider `COc1ccc(NC(=O)Nc2cccc(C)n2)c(OC)c1`, for which the “activation” value is inactive: -14.8%.

Take `Cc1c2cnn(CC(=O)O)c(=O)c2c(C)n1Cc1cccc(Cl)c1`: the “activation” value was inactive: -10.6%. The figure for `Cc1cc2c(cc1S(=O)(=O)CCC(=O)Nc1ccc(OC(F)(F)F)cc1)OCC(=O)N2` is inactive: -3.3%.

As for `Nc1c(C(=O)Nc2ccccc2Cl)nnn1Cc1cccc(Cl)c1`, the “activation” value was inactive: -20.6%.

For the compound `COc1cc(OC)cc(-c2nc3nc(C)c(CCC(=O)Nc4ccc(C)cc4)c(C)n3n2)c1`, the “activation” value was inactive: -0.731%.

For `Cc1ccc(NCc2nc3ccccc3n2CCOc2ccccc2C)cc1`, the “activation” value was inactive: -7.57%. Regarding `Cc1ccc(-n2ncc3c(N4CCC(C)CC4)ncnc32)cc1C`, the “activation” value was inactive: -13.9%. Take `COc1ccc(C(C(=O)NCc2ccccc2)N(C(=O)Cn2nnc3ccccc32)c2ccc(F)cc2)cc1` (configuration not stated): the “activation” value was inactive: -14.6%. Regarding `Cc1cccc(-c2noc(CNC(=O)c3ccc(C)cc3C)n2)c1`, the “activation” value is inactive: 5.72%.

As for `CCOc1ccc(S(=O)(=O)c2cn(Cc3ccc(C)cc3)c3ccc(OC)cc3c2=O)cc1`, the “activation” value was inactive: -5.59%. Consider `CCOc1ccc2cc(-c3nnc(Nc4ccccc4F)s3)c(=O)oc2c1`, for which the “activation” value was inactive: -9.44%. Turning to `Cc1ccc(CNC(=O)COCc2cc(-c3ccc4c(c3)OCO4)on2)cc1`, the “activation” value was inactive: -1.03%. Consider `CC(=O)Oc1c(C)c(C)c2c(c1C)CC[C@@](C)(CCC[C@H](C)CCC[C@H](C)CCCC(C)C)O2`, for which the “activation” value is inactive: -31.2%. Regarding `O=C(NCc1cccc(Br)c1)c1ccc(-n2cnc3cccnc32)cc1`, the “activation” value was inactive: -18.6%. The same measure for `Cc1ccc(-c2cnc(NCc3ccc(C(C)C)cc3)n2C)cc1`: inactive: -26.8%; for `COc1ccc(NCc2nc3ccccc3n2CCOc2ccc(C)cc2)cc1`: inactive: -13.1%; for `Cc1ccc(Cl)cc1N1CCN(C(=O)c2cn(C)c3ccc(S(=O)(=O)N4CCC(C)CC4)cc3c2=O)CC1`: inactive: -17.5%. For the compound `CCCOc1ccc(C(=O)N(Cc2cccs2)C2CCS(=O)(=O)C2)cc1` (configuration not stated), the “activation” value is inactive: 1.41%.

With `O=C(NCC(c1ccc(Cl)cc1)N1CCCCC1)c1ccccc1` (configuration not stated), the “activation” value was inactive: -7.04%. For `Cc1cc(Cl)ccc1NC(=O)C1CCN(S(=O)(=O)c2ccc3[nH]c(=O)ccc3c2)CC1`, the “activation” value was inactive: -20.8%. As for `COc1cccc(NC(=O)c2sc3nc(C)c(C(=O)Nc4ccc(C)cc4C)c(-c4ccc(Br)cc4)c3c2N)c1`, the “activation” value was inactive: -12.3%.

Consider `COc1ccc(CNC(=O)c2cc3sccc3n2C)cc1`, for which the “activation” value is inactive: -10.1%. Take `Cc1ccc2nc(SC(Cc3cc(Cl)ccc3Cl)C(=O)O)[nH]c2c1` (configuration not stated): the “activation” value is inactive: -15.8%.

With `Cc1ccc(C)c(N2CCN(C(=O)C3CCN(Cc4nc(-c5cccc(Cl)c5)oc4C)CC3)CC2)c1`, the “activation” value was inactive: 3.56%. `NC(=O)C1(N2CCCCC2)CCN(C(=O)Nc2ccc(Cl)c(Cl)c2)CC1`: the “activation” value was inactive: -13.9%. As to `O=C(CCOc1ccccc1)N(Cc1cccnc1)c1nc2c(Cl)cccc2s1`, the “activation” value was inactive: -2.1%. As to `CCOC(=O)c1cc(-c2ccccc2)nn1Cc1ccccc1`, the “activation” value was inactive: -12.7%. Regarding `Cc1ccc(C2c3[nH]c4ccccc4c3CCN2C(=O)c2ccc(N(C)C)cc2)cc1` (configuration not stated), the “activation” value was inactive: -13.7%. As to `Cc1ccc(CCNC(=O)CCSCc2ccccc2F)cc1`, the “activation” value is inactive: -1.37%. Turning to `Cc1cccc(Cn2c(=O)n(CCc3ccccc3)c(=O)c3sc4ccccc4c32)c1`, the “activation” value was inactive: -12.3%. The figure for `CC(C)NC(=O)c1cnc2sc(N3CCCCCC3)nn2c1=O` is inactive: -5.7%. Regarding `COc1ccc(CN(C(=O)Nc2ccccc2)c2ccccn2)cc1OC`, the “activation” value was inactive: -22.4%. For `CCOC(=O)c1c(C)[nH]c(CCC(=O)Nc2ccc(N(CC)CC)cc2C)c1C`, the “activation” value is inactive: -35.1%. For `Cc1ccc2oc(C(=O)Nc3c(C(=O)c4ccc(C)c(F)c4)oc4ccccc34)cc(=O)c2c1`, the “activation” value is inactive: -14.6%. Consider `O=S(=O)(Nc1c(F)cccc1F)c1ccc2c(c1)OCCO2`, for which the “activation” value is inactive: -19.9%.

For `CCOC(=O)N1CCc2c(sc3c2c(=O)n(Cc2ccccc2)c(=O)n3CC(=O)Nc2ccccc2F)C1`, the “activation” value was inactive: 4.18%. As to `CCn1nnc2cc(C(=O)Nc3cccc(C(F)(F)F)c3)ccc21`, the “activation” value was inactive: -13.3%.

With `COc1ccc(C)cc1NC(=O)C(CCSC)NS(=O)(=O)c1ccc2c(c1)oc(=O)n2C` (configuration not stated), the “activation” value was inactive: 13.6%. The same measure for `Cc1ccc(S(=O)(=O)N(Cc2nc(-c3ccc(Cl)cc3)no2)C2CCCCC2)cc1`: inactive: -3.06%; for `COc1ccc(-c2noc(-c3ccc(N4CCOCC4)c([N+](=O)[O-])c3)n2)cc1OC`: inactive: -15.8%.

Consider `CCOCCCNC(=O)N1CCN(S(=O)(=O)c2ccc3c(ccn3C)c2)CC1`, for which the “activation” value is inactive: -9.48%. As to `COc1ccccc1N1CCN(CCC(=O)Nc2cccc(F)c2)CC1`, the “activation” value was inactive: 0.0877%. Regarding `CCOc1ccc(CNC(=O)c2cnc(SC)nc2CC)cc1`, the “activation” value was inactive: -6.75%. As for `O=C(Cn1c(=O)n(-c2ccccc2)c(=O)c2ccc(C(=O)NCc3ccc4c(c3)OCO4)cc21)Nc1ccc(Br)cc1F`, the “activation” value is inactive: -13.2%. Take `CCOc1ccc(NC(=O)CSc2oc(-c3cccs3)nc2S(=O)(=O)c2ccc(Cl)cc2)cc1`: the “activation” value is inactive: -17%. For `CCCCSCCCNC(=O)CN1C(=O)COc2ccc(S(=O)(=O)N3CCCC3)cc21`, the “activation” value was inactive: -10.8%. The same measure for `COc1ccc(CNc2nc(-c3ccc(OC)c(OC)c3)cc(C(F)(F)F)n2)cc1`: inactive: -9.38%; for `COc1cccc(/C=C(\C#N)c2nc3ccc(C)cc3[nH]2)c1`: inactive: -11.1%. With `Cn1c(=O)c2c(SCC(=O)NCC3CCCO3)nc(-c3ccccc3F)nc2n(C)c1=O` (configuration not stated), the “activation” value is inactive: -13.2%. For `CCOC(=O)c1ccc(NS(=O)(=O)c2cc3c(cc2C)n(C)c(=O)c(=O)n3C)cc1`, the “activation” value is inactive: -7%. Consider `CCCSc1ncc(Cl)c(C(=O)Nc2ccc(CC)cc2)n1`, for which the “activation” value was inactive: -9.33%. In the case of `Oc1cccc(Nc2nc(-c3ccccc3)nc3ccccc23)c1`, the “activation” value is inactive: -15.3%. `CCN(CCCNC(=O)c1cc2cc3cc(OC)ccc3nc2s1)c1ccccc1`: the “activation” value is inactive: -12.5%. As for `Cc1ccc(CNC(=O)CSc2nc3ccsc3c(=O)n2-c2ccc(C(=O)O)cc2)cc1`, the “activation” value is inactive: -6.58%. On to `Cc1cc(NC(=O)c2ccc(Cl)c(Cl)c2)ccc1-c1cc2ccccc2oc1=O`, for which the “activation” value was inactive: -15.3%. For `COc1ccc(NC(=O)Cn2c(=O)n(-c3ccccc3)c(=O)c3ccc(C(=O)NCc4ccc5c(c4)OCO5)cc32)cc1`, the “activation” value is inactive: 2.27%.

Consider `CCOC(=O)C1CCC(CN(Cc2c(Cl)cccc2Cl)S(=O)(=O)c2ccc(F)c(C)c2)CC1` (configuration not stated), for which the “activation” value is inactive: -7.93%. With `CCOC(=O)c1c(C)[nH]c(C)c1S(=O)(=O)N(C)CC(=O)Nc1cc(Cl)ccc1OC`, the “activation” value is inactive: -8.68%.

As for `COc1cccc(NC(=O)CCNS(=O)(=O)c2ccc3c(c2)CCCC(=O)N3)c1`, the “activation” value was inactive: -16.5%. Turning to `O=C(CSC1=Nc2ccccc2C2=NC(CCC(=O)NC3CCCCC3)C(=O)N12)Nc1cccc(Cl)c1` (configuration not stated), the “activation” value was inactive: -24.4%. Consider `COc1ccc(-c2cnc(NCc3ccc(C)cc3)n2C)cc1`, for which the “activation” value is inactive: 9.23%. Turning to `O=C(CSc1nc(-c2ccccc2)cc(=O)[nH]1)Nc1ccccc1F`, the “activation” value is inactive: -26.1%. Turning to `CC1=C(C(=O)Nc2ccc(C)c(C)c2)C2(CCCCCC2)OC1=O`, the “activation” value is inactive: 0.362%. The same measure for `Cc1ccc2[nH]c(=O)c3cc(C(=O)N4CCN(c5ccccc5F)CC4)sc3c2c1`: inactive: -8.88%; for `COc1cc(C2NC(=O)N(C)C3=C2C(=O)N(c2ccccc2)C3)ccc1O` (configuration not stated): inactive: -12.1%.

For the compound `CCC(C)NC(=O)c1sc2nc(C)c(C(=O)Nc3ccc(C)cc3C)c(-c3ccc(Br)cc3)c2c1N` (configuration not stated), the “activation” value was inactive: -12.2%.

On to `COc1ccccc1NC(=O)CSc1oc(-c2cccs2)nc1S(=O)(=O)c1ccc(C)cc1`, for which the “activation” value is inactive: -26.5%. `CCN(CC)c1nc2c(S(=O)(=O)c3ccc(C)cc3)nnn2c2ccsc12`: the “activation” value was inactive: -0.934%.

Regarding `O=C(NCc1ccccc1)c1cccc(NC(=O)N2CCSc3ncccc32)c1`, the “activation” value is inactive: -9.3%. On to `COc1ccccc1CNC(=O)c1nn(-c2ccc(C)cc2)c(=O)c2c1c1ccccc1n2C`, for which the “activation” value is inactive: -9.3%. For `COc1ccc(CCNC(=O)CSc2nc3ccccc3nc2Cc2ccc(C)cc2)cc1OC`, the “activation” value is inactive: 3.32%. For the compound `Cc1cccc(CSc2ncc(Cl)c(C(=O)Nc3sc4c(c3C#N)CCCC4)n2)c1`, the “activation” value is inactive: 5.96%.

Regarding `Cc1ccccc1NC(=O)c1ccccc1NC(=O)c1ccccc1F`, the “activation” value is inactive: -8.17%. On to `COc1ccc(-c2nc3ccc(C(=O)NCc4ccccc4)cc3nc2-c2ccc(OC)cc2)cc1`, for which the “activation” value was inactive: -0.389%. On to `O=C(CN1C(=O)COc2ccc(S(=O)(=O)N3CCCCC3)cc21)NCCc1ccc(Cl)cc1`, for which the “activation” value was inactive: -13.2%. In the case of `CCCSc1nnc2c(n1)OC(CC)N(C(C)=O)c1ccccc1-2` (configuration not stated), the “activation” value was inactive: -12.9%. As to `CCn1ccc2cc(S(=O)(=O)N3CCC(C(=O)NCc4ccc(OC(C)C)cc4)CC3)ccc21`, the “activation” value is inactive: -5.69%. The same measure for `O=C(Nc1nnc(S(=O)(=O)N2CCCC2)s1)c1ccccc1Cl`: inactive: -13.8%; for `COc1ccc(N2CCN(S(=O)(=O)c3c(C)nc4sc(C)cn4c3=O)CC2)cc1`: inactive: -1.87%; for `Cc1cccc(OCC(=O)NCc2ccc3c(c2)CCN3C(=O)c2ccccc2)c1`: inactive: -5.54%.

Take `COc1ccc(Cc2nc3c4cnn(-c5ccccc5Br)c4ncn3n2)cc1`: the “activation” value is inactive: -11.7%.

On to `CC1=C(c2ccc(C)c(C)c2)S(=O)(=O)N(Cc2ccc(C(=O)NCc3ccc(C)cc3)cc2)C1=O`, for which the “activation” value is inactive: -19%. `CCOc1ccccc1CNC(=O)Cn1nc(C)c2nn(-c3ccc(Cl)cc3)c(C)c2c1=O`: the “activation” value was inactive: -4.87%.

Source of the values: PubChem BioAssay AID1159614 (National Center for Advancing Translational Sciences (NCATS), 2016).
